This is an account of results in PubChem BioAssay AID1508623 (National Center for Advancing Translational Sciences (NCATS), 2021).

The whole screen tested about 48,000 compounds, of which about 450 (0.94%) were called active. About 19% were inconclusive and are not listed. The call rests on the fitted dose curve; in most records, active means well fitted inhibition curve with a large enough effect; inconclusive means small, poorly fitted or top-dose-only effect; inactive means no such curve, though single readings can be large or run the other way. The list shows a part of the results.

The nature of this assay: Primary qHTS for Identification of Small Molecule Inhibitors of Huntingtin Promoter Activity. Further: nearly all actives have a fitted effect of over 50% in size. Particulars: HEK293 HTT promoter firefly luciferase reporter (activity 0% = vehicle and -100% = no light), 24 h; series mostly up to 57.5 µM; activity change, negative = inhibition: at the top concentration. The method, boiled down: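 Luminescence was read after Dual-Glo reagent and a 10 min room-temperature incubation. Values were normalized to vehicle (0% activity) and zero RLU (-100% activity). Reporter HEK293 cells had been exposed to compounds (up to 57.5 uM final) for 24 h.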
A general note: Quantitative high-throughput screening tests each substance at several concentrations.
In the case of `Cc1nnc(N2CCCC(C(=O)NCc3ccccc3)C2)c2nn(-c3ccccc3)c(C)c12` (configuration not stated), the “activity change, negative = inhibition” value was inactive: -9.88%.

For the compound `CCCCN(C)CCNC(=O)C1CCCN(S(=O)(=O)c2cccc3nsnc23)C1` (configuration not stated), the “activity change, negative = inhibition” value was inactive: -15.3%.

On to `Cc1c(Cl)cccc1-c1ccc(CNCCCSc2nnnn2C)o1`, for which the “activity change, negative = inhibition” value was inactive: -21%.

As to `CCc1ccc(S(=O)(=O)c2cn(C)c3cc(N4CCOCC4)c(F)cc3c2=O)cc1`, the “activity change, negative = inhibition” value is inactive: -18.6%.

Consider `Cc1cn2c(=O)cc(COc3cccc(NC(=O)c4ccc(C(C)(C)C)cc4)c3)nc2s1`, for which the “activity change, negative = inhibition” value is inactive: -17%.

Consider `CCOC(=O)C1CCN(CC(=O)Nc2cc(C)c3c(=O)oc4ccccc4c3n2)CC1`, for which the “activity change, negative = inhibition” value is inactive: -7.19%.

Turning to `N#CC(=C(N)Sc1ccc(N)cc1)c1ccccc1C(F)(F)F`, the “activity change, negative = inhibition” value was inactive: -3.8%.

As for `O=C(Nc1ccc(OCc2cc(=O)n3c4c(sc3n2)CCCC4)cc1)c1cccc(F)c1`, the “activity change, negative = inhibition” value was inactive: -14.6%.

With `Cc1ccc(NC(=O)CN(C)S(=O)(=O)c2ccc3c(c2)n(C)c(=O)c(=O)n3C)cc1F`, the “activity change, negative = inhibition” value is inactive: -7.76%.

As for `Cc1ccc(C)c(Nc2nnc(-c3ccc(C)c(S(=O)(=O)N4CCN(C)CC4)c3)c3ccccc23)c1`, the “activity change, negative = inhibition” value was inactive: -13.7%.

`CCc1ccc(NC(=O)C(=O)NCCc2csc(-c3cccc(F)c3)n2)cc1`: the “activity change, negative = inhibition” value was inactive: -9.91%.

Turning to `CCOc1ccc(NC(=O)CSc2oc(-c3cccs3)nc2S(=O)(=O)c2ccc(C)cc2)cc1`, the “activity change, negative = inhibition” value is inactive: -6.15%.

For `Cc1ccc(C2=CC(c3ccccc3C)n3c(nc4ccccc43)N2)cc1` (configuration not stated), the “activity change, negative = inhibition” value was inactive: -1.56%.

`CCCc1c2oc(C(=O)O)cc(=O)c2cc2c(=O)cc(C(=O)O)n(CC)c12`: the “activity change, negative = inhibition” value was inactive: 7.9%.

As for `O=C(COc1ccc(Cl)cc1)NCC(c1ccco1)S(=O)(=O)c1ccccc1` (configuration not stated), the “activity change, negative = inhibition” value is inactive: -20.3%.

Take `COc1ccccc1NC(=O)c1sc2nc3c(c(C(F)(F)F)c2c1N)CN(C(C)=O)CC3`: the “activity change, negative = inhibition” value is inactive: -24.6%.

Turning to `Cc1nn(-c2ccc(N3CCOCC3)nn2)c(C)c1CCC(=O)NCc1ccccc1`, the “activity change, negative = inhibition” value is inactive: -12.4%.

For `Cc1cc(C)c(NC(=O)CSc2n[nH]c(-c3ccccc3Cl)n2)c(C)c1`, the “activity change, negative = inhibition” value was inactive: -20.6%.

In the case of `O=C(O)c1ccccn1`, the “activity change, negative = inhibition” value is inactive: 6.36%.

For `CN(C)CCNC(=O)CN1N=C(c2ccccc2)CCC1=O`, the “activity change, negative = inhibition” value was inactive: 7.51%.

Take `COc1ccc(NC(=O)c2cnc(Nc3ccc(C)c(Cl)c3)c3ccccc23)c(OC)c1`: the “activity change, negative = inhibition” value is inactive: -3.31%.

With `CC(=O)Oc1ccc(C(=C2CCCCC2)c2ccc(OC(C)=O)cc2)cc1`, the “activity change, negative = inhibition” value is inactive: -6.48%.

In the case of `CCCC(=O)N1CCc2cc(OC)c(OC)cc2C1COc1ccc2c(C)cc(=O)oc2c1` (configuration not stated), the “activity change, negative = inhibition” value was inactive: -4.12%.

For `COc1ccc2c(c1)CC(C(=O)NCCN1CCN(c3ccccc3F)CC1)CO2` (configuration not stated), the “activity change, negative = inhibition” value is inactive: -17.2%.

As for `COc1ccc(NC(=O)Cn2c(=O)cc(C)c3c(C)nn(C)c32)cc1`, the “activity change, negative = inhibition” value is inactive: -26.7%.

`CCOc1ccc(NC(=O)Cn2cc(C(=O)c3ccc(CC)cc3)c(=O)c3cc4c(cc32)OCO4)cc1`: the “activity change, negative = inhibition” value was inactive: -7.33%.

Take `Cc1ccc(Cl)cc1N1CCN(C(=O)c2cnn(C(C)(C)C)c2C2CCN(C(=O)OC(C)(C)C)CC2)CC1`: the “activity change, negative = inhibition” value is inactive: -15.3%.

Consider `CCC(Sc1ncc(S(=O)(=O)c2ccc(C)cc2)c(=O)[nH]1)C(=O)Nc1cc(C)ccc1C` (configuration not stated), for which the “activity change, negative = inhibition” value was inactive: -8.42%.

With `CCc1ccc(NC(=O)CN2CCN(C3CCCCC3)C(=O)C2=O)cc1`, the “activity change, negative = inhibition” value is inactive: 8.63%.

With `O=C(Cn1cc(SCc2ccc(Br)cc2)c2ccccc21)N1CCCCC1`, the “activity change, negative = inhibition” value is inactive: -6.25%.

In the case of `Cc1ccc(/C=C(\C#N)C(=O)Nc2ccc(Br)cc2)o1`, the “activity change, negative = inhibition” value is inactive: 88.3%.

For the compound `Cn1nnnc1SCCCNCc1cccc(OCc2ccccc2F)c1`, the “activity change, negative = inhibition” value was inactive: -3.19%.

As to `O=C(Nc1c(C(=O)c2ccc(Cl)cc2)oc2ccccc12)c1cc(=O)c2ccccc2o1`, the “activity change, negative = inhibition” value was inactive: -10.8%.

Turning to `CCc1nc2ccc(C(=O)NCc3ccc(N(C)C)cc3)cc2nc1CC`, the “activity change, negative = inhibition” value was inactive: -21.4%.

In the case of `Cc1ccc2oc(=O)c(S(=O)(=O)c3ccc(F)cc3)cc2c1`, the “activity change, negative = inhibition” value is inactive: -10.9%.

As to `COc1ccc(NC(=O)c2ccco2)cc1NC(=O)c1ccc(C)c(C)c1`, the “activity change, negative = inhibition” value is inactive: -17%.

On to `CCN(C(=O)CSc1nc2ccccc2n1Cc1ccc(C(=O)OC)cc1)c1ccccc1`, for which the “activity change, negative = inhibition” value was inactive: -21.8%.

Take `COc1ccc(CCN2C(=O)NC(NC(=O)c3ccccc3OC)(C(F)(F)F)C2=O)cc1OC` (configuration not stated): the “activity change, negative = inhibition” value is inactive: -28.9%.

As for `Cc1cccc(C)c1Nc1c(-c2ccc(N3CCOCC3)cc2)nc2ncccn12`, the “activity change, negative = inhibition” value is inactive: -14.9%.

For the compound `CNC(=O)c1c(NC(=O)c2cc(=O)c3cc(C)c(C)cc3o2)sc2c1CCCC2`, the “activity change, negative = inhibition” value was inactive: -13.7%.

On to `CCN(CC)CCN(C(=O)c1ccco1)c1nc2c(C)c(C)ccc2s1`, for which the “activity change, negative = inhibition” value was inactive: 2.27%.

With `COc1ccccc1CNC(=O)Cn1c(-c2ccc(F)cc2)cc(C(C)=O)c1C`, the “activity change, negative = inhibition” value is inactive: -13.7%.

As to `CC(=O)Nc1ccc(NC(=O)CN2C(=O)CC(c3ccco3)Sc3ccccc32)cc1` (configuration not stated), the “activity change, negative = inhibition” value was inactive: -13.1%.

For `Cc1ccc(-c2cc(C(F)(F)F)n3nc(-c4cccc(Br)c4)cc3n2)cc1`, the “activity change, negative = inhibition” value is inactive: -11.2%.

In the case of `COc1ccc(N2CCN(C(=O)CN3CCSc4ccccc43)CC2)cc1`, the “activity change, negative = inhibition” value was inactive: -31.7%.

Turning to `CC1(C)OC2CC3C4CC(F)C5=CC(=O)C=CC5(C)C4C(O)CC3(C)[C@]2(C(=O)CO)O1` (some centres not stated), the “activity change, negative = inhibition” value was inactive: 1.24%.

As to `CCCCNC(=O)CC1Nc2cc(C)c(C)cc2NC1=O` (configuration not stated), the “activity change, negative = inhibition” value was inactive: 10.5%.

Take `COc1ccccc1NC(=O)c1nn(C)c2c1CS(=O)(=O)c1ccccc1-2`: the “activity change, negative = inhibition” value was inactive: -4.2%.

Consider `COc1ccc(Cl)cc1NC(=O)Nc1c[nH]c(=O)[nH]c1=O`, for which the “activity change, negative = inhibition” value is inactive: 9.83%.

On to `Cc1c(Cl)cccc1N1CCn2c1nc1c2c(=O)n(CC(=O)O)c(=O)n1C`, for which the “activity change, negative = inhibition” value is inactive: -2.84%.

For the compound `O=C(O)C1CCCN(CCC=C(c2ccccc2)c2ccccc2)C1` (configuration not stated), the “activity change, negative = inhibition” value was inactive: -0.978%.

Take `O=C(NCCc1ccc(Cl)cc1)c1nnc(Cc2ccc(F)cc2)o1`: the “activity change, negative = inhibition” value is inactive: -14.3%.

`O=C(CCSCc1ccc(Cl)cc1)NCCc1ccccc1`: the “activity change, negative = inhibition” value was inactive: -4.35%.

Regarding `O=C(Nc1ccc(-c2nc3ccccc3o2)c(O)c1)c1cc(Cl)ccc1Cl`, the activity change, negative = inhibition is inactive: -15.8% [at 11.5 µM].

Consider `O=C(NCC(c1cccnc1)N1CCc2ccccc2C1)C(=O)Nc1ccccc1F` (configuration not stated), for which the “activity change, negative = inhibition” value was inactive: -15.5%.

Regarding `CCN(C(=O)CCS(=O)(=O)c1ccc2c(c1)CCN2C(C)=O)c1cccc(C(F)(F)F)c1`, the “activity change, negative = inhibition” value was inactive: -8.19%.

`CCN1CCc2c(sc(NC(=O)c3ccc(S(=O)(=O)N(C)C4CCCCC4)cc3)c2C(N)=O)C1`: the “activity change, negative = inhibition” value is inactive: -14%.

For the compound `CC(=O)O[C@]1(C(C)=O)CC[C@H]2[C@@H]3C=C(Cl)C4=CC(=O)[C@@H]5C[C@@H]5[C@]4(C)[C@H]3CC[C@@]21C`, the “activity change, negative = inhibition” value is inactive: -6.53%.

`COc1cc(C(=O)N2CCNC(=O)C2CC(=O)Nc2ccc(C)c(C)c2)cc(OC)c1OC` (configuration not stated): the “activity change, negative = inhibition” value is inactive: -5.33%.

For the compound `Cc1ccccc1-c1nnc(SCC(=O)N(C)c2ccccc2)o1`, the “activity change, negative = inhibition” value is inactive: 46.6%.

Regarding `CCCCNc1nc2c(-c3cccc(C)c3)nnn2c2ccccc12`, the “activity change, negative = inhibition” value was inactive: -14.5%.

Regarding `Cc1ccc(/C=C/c2onc(C)c2S(=O)(=O)N2CCC(C(=O)Nc3ccc(OC(F)(F)F)cc3)CC2)cc1`, the “activity change, negative = inhibition” value is inactive: -20%.
